# Data published in the supplement of paper PMC8728848.
# This is one part of the list.
# B1: LecB PA7 (Pseudomonas aeruginosa) (protein)
# chain: MATQGVFTLPANTRFGVTAFANSSATQTVKVLVNNETAATFTGQSTNNAVIGSQVLNSGGGGKVQIQVSVNGRSSDLVSAQVILANELNVALVGSEDSTDNDYNDAVVVINWPLG
# What was measured:
# Test in all cases: glycan array binding signal (z-score within array); higher = stronger binding
# Conditions in all cases: glycan notation: IUPAC condensed, linker removed
# [1] = target: Neu5Ac(a2-6)Gal(b1-4)GlcNAc(b1-3)Gal(b1-4)GlcNAc(b1-3)GalNAc
# In short: (§1)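 Glycan array data came from 3228 arrays in the Consortium for Functional Glycomics database, and only arrays with an available protein sequence were kept. Glycan names were put into IUPAC-condensed notation, and columns mapping to the same glycan were averaged. The binding signal is a within-array Z-score, averaged across arrays of one protein sequence run at different concentrations or buffers and across linkers. A negative Z-score can be read as non-binding.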
# [2] = target: Neu5Ac(a2-6)Gal(b1-4)GlcNAc(b1-3)Gal(b1-4)GlcNAc(b1-3)[Neu5Ac(a2-6)Gal(b1-4)GlcNAc(b1-3)Gal(b1-4)GlcNAc(b1-6)]GalNAc
# In short: as §1
# [3] = target: Neu5Ac(a2-6)Gal(b1-4)GlcNAc(b1-3)Gal(b1-4)GlcNAc(b1-6)[Gal(b1-3)]GalNAc
# In short: as §1
# [4] = target: Neu5Ac(a2-6)Gal(b1-4)GlcNAc(b1-3)Gal(b1-4)[Fuc(a1-3)]GlcNAc(b1-3)Gal(b1-4)[Fuc(a1-3)]GlcNAc
# In short: as §1
# [5] = target: Neu5Ac(a2-6)Gal(b1-4)GlcNAc(b1-3)GalNAc
# In short: as §1
# [6] = target: Neu5Ac(a2-6)Gal(b1-4)GlcNAc(b1-3)[Neu5Ac(a2-6)Gal(b1-4)GlcNAc(b1-6)]GalNAc
# In short: as §1
# [7] = target: Neu5Ac(a2-6)Gal(b1-4)GlcNAc(b1-6)GalNAc
# In short: as §1
# [8] = target: Neu5Ac(a2-6)Gal(b1-4)GlcNAc(b1-6)[Gal(b1-3)GlcNAc(b1-3)]Gal(b1-4)Glc
# In short: as §1
# [9] = target: Neu5Ac(a2-6)Gal(b1-4)GlcNAc(b1-6)[Gal(b1-3)]GalNAc
# In short: as §1
# [10] = target: Neu5Ac(a2-6)Gal(b1-4)GlcNAc6S
# In short: as §1
# Neu5Ac(a2-6)GalNAc = target: Neu5Ac(a2-6)GalNAc
# In short: as §1
# [11] = target: Neu5Ac(a2-6)GalNAc(b1-4)GlcNAc
# In short: as §1
# [12] = target: Neu5Ac(a2-6)GalNAc(b1-4)GlcNAc6S
# In short: as §1
# [13] = target: Neu5Ac(a2-6)GlcNAc(b1-4)GlcNAc
# In short: as §1
# [14] = target: Neu5Ac(a2-6)GlcNAc(b1-4)GlcNAc(b1-4)GlcNAc
# In short: as §1
# Neu5Ac(a2-8)Neu5Ac = target: Neu5Ac(a2-8)Neu5Ac
# In short: as §1
# [15] = target: Neu5Ac(a2-8)Neu5Ac(a2-3)Gal(b1-3)GalNAc(b1-4)[Neu5Ac(a2-3)]Gal(b1-4)Glc
# In short: as §1
# [16] = target: Neu5Ac(a2-8)Neu5Ac(a2-3)Gal(b1-3)GalNAc(b1-4)[Neu5Ac(a2-8)Neu5Ac(a2-3)]Gal(b1-4)Glc
# In short: as §1
# [17] = target: Neu5Ac(a2-8)Neu5Ac(a2-3)Gal(b1-4)Glc
# In short: as §1
# [18] = target: Neu5Ac(a2-8)Neu5Ac(a2-3)Gal(b1-4)GlcNAc
# In short: as §1
# [19] = target: Neu5Ac(a2-8)Neu5Ac(a2-3)[Gal(b1-3)GalNAc(b1-4)]Gal(b1-4)Glc
# In short: as §1
# [20] = target: Neu5Ac(a2-8)Neu5Ac(a2-3)[GalNAc(b1-4)]Gal(b1-4)Glc
# In short: as §1
# [21] = target: Neu5Ac(a2-8)Neu5Ac(a2-8)Neu5Ac
# In short: as §1
# [22] = target: Neu5Ac(a2-8)Neu5Ac(a2-8)Neu5Ac(a2-3)Gal(b1-4)Glc
# In short: as §1
# [23] = target: Neu5Ac(a2-8)Neu5Ac(a2-8)Neu5Ac(a2-3)[Gal(b1-3)GalNAc(b1-4)]Gal(b1-4)Glc
# In short: as §1
# [24] = target: Neu5Ac(a2-8)Neu5Ac(a2-8)Neu5Ac(a2-3)[GalNAc(b1-4)]Gal(b1-4)Glc
# In short: as §1
# [25] = target: Neu5Ac(a2-8)Neu5Ac(a2-8)Neu5Ac(a2-8)Neu5Ac(a2-3)[GalNAc(b1-4)]Gal(b1-4)Glc
# In short: as §1
# [26] = target: Neu5Ac(a2-8)Neu5Gc(a2-3)Gal(b1-4)GlcNAc
# In short: as §1
# [27] = target: Neu5Ac(b2-6)Gal(b1-4)GlcNAc
# In short: as §1
# Neu5Ac(b2-6)GalNAc = target: Neu5Ac(b2-6)GalNAc
# In short: as §1
# [28] = target: Neu5Ac9Ac(a2-3)Gal(b1-3)GlcNAc
# In short: as §1
# [29] = target: Neu5Ac9Ac(a2-3)Gal(b1-4)GlcNAc
# In short: as §1
# [30] = target: Neu5Ac9Ac(a2-6)Gal(b1-4)GlcNAc
# In short: as §1
# [31] = target: Neu5Gc(a2-3)Gal(b1-3)GlcNAc
# In short: as §1
# [32] = target: Neu5Gc(a2-3)Gal(b1-3)[Fuc(a1-4)]GlcNAc
# In short: as §1
# Neu5Gc(a2-3)Gal(b1-4)Glc = target: Neu5Gc(a2-3)Gal(b1-4)Glc
# In short: as §1
# [33] = target: Neu5Gc(a2-3)Gal(b1-4)GlcNAc
# In short: as §1
# [34] = target: Neu5Gc(a2-3)Gal(b1-4)GlcNAc(b1-3)Gal(b1-4)GlcNAc(b1-2)Man(a1-3)[Neu5Gc(a2-3)Gal(b1-4)GlcNAc(b1-3)Gal(b1-4)GlcNAc(b1-2)Man(a1-6)]Man(b1-4)GlcNAc(b1-4)GlcNAc
# In short: as §1
# [35] = target: Neu5Gc(a2-3)Gal(b1-4)[Fuc(a1-3)]GlcNAc
# In short: as §1
# [36] = target: Neu5Gc(a2-6)Gal(b1-4)GlcNAc
# In short: as §1
# Neu5Gc(a2-6)GalNAc = target: Neu5Gc(a2-6)GalNAc
# In short: as §1
# [37] = target: Neu5Gc(a2-8)Neu5Ac(a2-3)Gal(b1-4)GlcNAc
# In short: as §1
# [38] = target: Neu5Gc(a2-8)Neu5Gc(a2-3)Gal(b1-4)GlcNAc
# In short: as §1
# [39] = target: Neu5Gc(a2-8)Neu5Gc(a2-3)Gal(b1-4)GlcNAc(b1-3)Gal(b1-4)GlcNAc
# In short: as §1
# [40] = target: Neu5Gc(a2-8)Neu5Gc(a2-6)Gal(b1-4)GlcNAc
# In short: as §1
binder,measurement,setting,value
B1,glycan array binding signal (z-score),[1],-0.501
same,glycan array binding signal (z-score),[2],-0.497
same,glycan array binding signal (z-score),[3],-0.51
same,glycan array binding signal (z-score),[4],2.19
same,glycan array binding signal (z-score),[5],-0.471
same,glycan array binding signal (z-score),[6],-0.506
same,glycan array binding signal (z-score),[7],-0.476
same,glycan array binding signal (z-score),[8],-0.396
same,glycan array binding signal (z-score),[9],-0.504
same,glycan array binding signal (z-score),[10],-0.503
same,glycan array binding signal (z-score),Neu5Ac(a2-6)GalNAc,-0.507
same,glycan array binding signal (z-score),[11],-0.511
same,glycan array binding signal (z-score),[12],-0.408
same,glycan array binding signal (z-score),[13],-0.49
same,glycan array binding signal (z-score),[14],-0.371
same,glycan array binding signal (z-score),Neu5Ac(a2-8)Neu5Ac,-0.513
same,glycan array binding signal (z-score),[15],-0.51
same,glycan array binding signal (z-score),[16],-0.508
same,glycan array binding signal (z-score),[17],-0.512
same,glycan array binding signal (z-score),[18],-0.511
same,glycan array binding signal (z-score),[19],-0.508
same,glycan array binding signal (z-score),[20],-0.483
same,glycan array binding signal (z-score),[21],-0.505
same,glycan array binding signal (z-score),[22],-0.481
same,glycan array binding signal (z-score),[23],-0.509
same,glycan array binding signal (z-score),[24],-0.497
same,glycan array binding signal (z-score),[25],-0.491
same,glycan array binding signal (z-score),[26],-0.516
same,glycan array binding signal (z-score),[27],-0.51
same,glycan array binding signal (z-score),Neu5Ac(b2-6)GalNAc,-0.503
same,glycan array binding signal (z-score),[28],-0.517
same,glycan array binding signal (z-score),[29],-0.503
same,glycan array binding signal (z-score),[30],-0.502
same,glycan array binding signal (z-score),[31],-0.501
same,glycan array binding signal (z-score),[32],2.03
same,glycan array binding signal (z-score),Neu5Gc(a2-3)Gal(b1-4)Glc,-0.449
same,glycan array binding signal (z-score),[33],-0.497
same,glycan array binding signal (z-score),[34],-0.49
same,glycan array binding signal (z-score),[35],0.247
same,glycan array binding signal (z-score),[36],-0.505
same,glycan array binding signal (z-score),Neu5Gc(a2-6)GalNAc,-0.508
same,glycan array binding signal (z-score),[37],-0.513
same,glycan array binding signal (z-score),[38],-0.504
same,glycan array binding signal (z-score),[39],-0.511
same,glycan array binding signal (z-score),[40],-0.507
